Test results as given in US20260078159A1 (CUGENE, published 2026).

What was measured:
[1] = molecular target: T1, recombinant human PD1 protein (human, UniProt Q15116 part only, limits assumed); test: binding ELISA, plate-coated recombinant human PD1
Method: Antibodies of the invention were tested for their antigen binding activity by well-known methods such as enzyme-linked immunosorbent assay (ELISA). Briefly, Nunc Maxisorp plates (ThermoFisher) were coated with recombinant human PD1 protein in bicarbonate buffer, pH 9.4 (ThermoFisher), overnight at 4° C., using 1 μg of antigen per well (100 μL/well). After triple washing with PBS/0.05% Tween 20, plates were incubated with SuperBlock (ThermoFisher) for two hours at room temperature to block nonspecific binding. The PD1 antibodies, serially diluted three-fold with blocking buffer (PBS with 1% bovine serum albumin) were added to the plates (100 μL/well) post washing and incubated at room temperature for one hour. After another washing, antibodies were detected by incubating with a horseradish peroxidase (HRP)-conjugated goat anti-human IgG Fc antibody (ThermoFisher) diluted 1:5000 in blocking buffer (100 μL/well) for one hour at room temperature. After a final wash, TMB substrate (ThermoFisher) at 100 μL/well was added. Plates were sealed and left to incubate in dark for 5-20 minutes. The reaction was stopped by adding 2N sulfuric acid (Ricca Chemical) (50 μL/well), and the absorbance was measured at 450 nm with a plate reader. The curves were plotted, and the half-maximal effective concentration (EC₅₀) values were calculated using GraphPad Prism software.

[2] = molecular target: T1, recombinant human PD1 protein; test: competition ELISA, PD1 coated, biotinylated human PD-L1-Fc at 0.5 µg/mL as competitor
T1 sequence (Q15116 25-170 limits assumed): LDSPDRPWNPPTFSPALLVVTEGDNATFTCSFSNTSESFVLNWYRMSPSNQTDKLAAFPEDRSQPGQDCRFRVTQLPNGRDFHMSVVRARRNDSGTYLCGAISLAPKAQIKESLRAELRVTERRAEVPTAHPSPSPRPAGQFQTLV
Method: A non-targeting germline antibody, P-1260 (SEQ ID NOS: 171, 172 and 173) was included as the negative control. The binding ELISA procedures were outlined in Example 3. The competition ELISA followed a similar protocol. […] After 1-hour incubation at 37° C., HRP-conjugated Streptavidin (ThermoFisher) diluted to 0.1 μg/ml were added to the plate and incubate at 37° C. for 1 hour. The plate was subsequently developed using TMB (ThermoFisher) substrate. Absorbance readings were taken at 450 nm, with 630 nm as the reference wavelength. The half-maximal inhibitory concentrations (IC50) values were deduced using GraphPad Prism software.

B1: P-1352 (other)
heavy 1: QVQLVQSGAEVKKPGASVKVSCKASGYTFTNYYMYWVRQAPGQGLEWMGGINPSNGGTNFAQKFQGRVTLTTDSSTSTAYMELSSLRSDDTAVYYCARRDYRFDMGFDYWGQGTLVTVSSASTKGPSVFPLAPSSKSTSGGTAALGCLVKDYFPEPVTVSWNSGALTSGVHTFPAVLQSSGLYSLSSVVTVPSSSLGTQTYICNVNHKPSNTKVDKKVEPKSCDKTHTCPPCPAPEAAGAPSVFLFPPKPKDTLMISRTPEVTCVVVDVSHEDPEVKFNWYVDGVEVHNAKTKPREEQYNSTYRVVSVLTVLHQDWLNGKEYKCKVSNKALPAPIEKTISKAKGQPREPQVYTLPPCREEMTKNQVSLWCLVKGFYPSDIAVEWESNGQPENNYKTTPPVLDSDGSFFLYSKLTVDKSRWQQGNVFSCSVMHEALHNHYTQKSLSLSPGGGGGSGGGGSGGGGS[letters of about 120 residues left out]
heavy 2: QVQLVQSGAEVKKPGASVKVSCKASGYTFTNYYMYWVRQAPGQGLEWMGGINPSNGGTNFAQKFQGRVTLTTDSSTSTAYMELSSLRSDDTAVYYCARRDYRFDMGFDYWGQGTLVTVSSASTKGPSVFPLAPSSKSTSGGTAALGCLVKDYFPEPVTVSWNSGALTSGVHTFPAVLQSSGLYSLSSVVTVPSSSLGTQTYICNVNHKPSNTKVDKKVEPKSCDKTHTCPPCPAPEAAGAPSVFLFPPKPKDTLMISRTPEVTCVVVDVSHEDPEVKFNWYVDGVEVHNAKTKPREEQYNSTYRVVSVLTVLHQDWLNGKEYKCKVSNKALPAPIEKTISKAKGQPREPQVCTLPPSREEMTKNQVSLSCAVKGFYPSDIAVEWESNGQPENNYKTTPPVLDSDGSFFLVSKLTVDKSRWQQGNVFSCSVMHEALHNHYTQKSLSLSPG
light: EIVLTQSPATLSLSPGERATLSCRASQGVSTSGYSYLHWYQQKPGQAPRLLIYLASYRESGVPARFSGSGSGTDFTLTISSLEPEDFAVYYCQHSRDLPLTFGGGTKVEIKRTVAAPSVFIFPPSDEQLKSGTASVVCLLNNFYPREAKVQWKVDNALQSGNSQESVTEQDSKDSTYSLSSTLTLSKADYEKHKVYACEVTHQGLSSPVTKSFNRGEC
chain: ITCPPPMSVEHADIWVKSYSLYSRERYICNSGFKRKAGTSSLTECVLNKATNVAHWTTPSLKCIRDPALVHQRPAPP
notes: also called PD1 Ab-IL15 immunocytokine; human PD1 Ab-IL-15 I68H/Q108N immunocytokine
- EC50 [1]: 30.4 pM
- IC50 [2]: 1880 pM
